In the RNAGym collection of RNA variant scans (doi:10.1073/pnas.2313332121):
Variants at the background level are over-represented here.

B1: TPR 5TU (parent)
chain: GGAUCUUCUCGAUCUAACAAAAAAGACAAAUCUGCCACAAAGCUUGAGAGCAUCUUCGGAUGCAGAGGCGGCAGCCUUCGGUGGCGCGAUAGCGCCAACGUUCUCAACUAUGACACGCAAAACGCGUGCUCCGUUGAAUGGAGUUUAUCAUG

Variants of: B1
Experiment: polymerase ribozyme fitness, log enrichment relative to wild type (log ratio); higher = more active; in vitro selection for triplet polymerase activity
Method in brief: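 Frozen incubation at −7 °C formed the core of a single, triplicate in vitro selection round applied to PCR-built, transcribed mutant libraries of each subunit of a heterodimeric triplet polymerase ribozyme. Extended constructs were gel-excised, captured with streptavidin beads and amplified by RT-PCR, and input and output libraries were Illumina-sequenced with a filter of ≥10 input reads and ≥1 read per output. Fitness is the logarithm of genotype enrichment relative to wild-type enrichment, with inverse-variance-weighted replicate averaging, and the logarithm is base 2.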

Compared with U82C C118U C129U G140A U148A, G83A U151A is higher in “polymerase ribozyme fitness (log ratio)” value: at most -4.2 for the first, -3.69 for the second.

Compared with U82A U127C G152U, U82G C85A C95U U146A A150U is higher in “polymerase ribozyme fitness (log ratio)” value: -3.97 for the first, -1.37 for the second.

G83U G126A and U82G C99G are within 0.2 log units of each other in “polymerase ribozyme fitness (log ratio)” value: -0.669 for the first, -0.787 for the second.

U78G U82A C108G C125U U135C U151A and C79A A97G A113G A119G A150C cannot be ordered by “polymerase ribozyme fitness (log ratio)” value: at most -4.2 for the first, at most -4.2 for the second.

C79G A91U A142C U148C and C79A C87A A98U U101G cannot be ordered by “polymerase ribozyme fitness (log ratio)” value: at most -4.2 for the first, at most -4.2 for the second.

First: G81C G94U C118G G126A U146G A150G
Second: G81C G86A
The “polymerase ribozyme fitness (log ratio)” value of the first is lower: at most -4.2 for the first, -1.83 for the second.

C79G G83C C93U C123U G126A and U78G C85G U109C G140U cannot be ordered by “polymerase ribozyme fitness (log ratio)” value: at most -4.2 for the first, at most -4.2 for the second.

U82C G92U A110G U135G and G83U U90C A113U U148C cannot be ordered by “polymerase ribozyme fitness (log ratio)” value: at most -4.2 for the first, at most -4.2 for the second.

Compared with G83U C149U, C79G G84A G100A A110C is lower in “polymerase ribozyme fitness (log ratio)” value: -1.76 for the first, at most -4.2 for the second.

First: G83A C105A
Second: U82C C95U C131G A142C
The “polymerase ribozyme fitness (log ratio)” value of the first is higher: -3.15 for the first, at most -4.2 for the second.

Compared with G83U G94C C116U, U82G G92A is lower in “polymerase ribozyme fitness (log ratio)” value: -2.08 for the first, -2.96 for the second.

G83A A120G U139A and C79U C93U G140U cannot be ordered by “polymerase ribozyme fitness (log ratio)” value: at most -4.2 for the first, at most -4.2 for the second.

Compared with U82G C87U U146C, G80A G86A A89U C93A A107G A122G is lower in “polymerase ribozyme fitness (log ratio)” value: -0.959 for the first, at most -4.2 for the second.

Compared with U82G C85U C93G C125U, U82A G92U is higher in “polymerase ribozyme fitness (log ratio)” value: at most -4.2 for the first, -0.55 for the second.

G83U C108A U144G and C79U G94C A119C cannot be ordered by “polymerase ribozyme fitness (log ratio)” value: at most -4.2 for the first, at most -4.2 for the second.

G83U A107U G141U and C79A C93A C95U cannot be ordered by “polymerase ribozyme fitness (log ratio)” value: at most -4.2 for the first, at most -4.2 for the second.

Compared with G81A C118A U148C, C79U C85U A115C is lower in “polymerase ribozyme fitness (log ratio)” value: -2.6 for the first, at most -4.2 for the second.

Compared with U82G A113G C125U, G80U A138C is lower in “polymerase ribozyme fitness (log ratio)” value: -3.28 for the first, at most -4.2 for the second.

C79G C96U C105U U134A and C79G G88C G92A C125G cannot be ordered by “polymerase ribozyme fitness (log ratio)” value: at most -4.2 for the first, at most -4.2 for the second.

G84A A89G G100C A115G C125U and G83C G86C C105G A115U A121G G143C G152C cannot be ordered by “polymerase ribozyme fitness (log ratio)” value: at most -4.2 for the first, at most -4.2 for the second.

U78C C95U C108U C116U and G83U G92A C125G A138G U151A cannot be ordered by “polymerase ribozyme fitness (log ratio)” value: at most -4.2 for the first, at most -4.2 for the second.

Compared with G83U G88U A150U, G83C A110U U127C is lower in “polymerase ribozyme fitness (log ratio)” value: -3.49 for the first, at most -4.2 for the second.

First: C79A U148A
Second: C79G A98G G100C G124A
The “polymerase ribozyme fitness (log ratio)” value of the first is lower: at most -4.2 for the first, -2.18 for the second.

First: G83U C96A
Second: G83C A97U U139A G141C U151G
The “polymerase ribozyme fitness (log ratio)” value of the first is higher: -0.528 for the first, at most -4.2 for the second.

U82C G94U A98G A107C and U78C G83U G86A A121C cannot be ordered by “polymerase ribozyme fitness (log ratio)” value: at most -4.2 for the first, at most -4.2 for the second.

Going from U82G G94U to C79U C85U A122C G140C, the “polymerase ribozyme fitness (log ratio)” value falls from -0.833 to at most -4.2.

G83U C87G C99U and G84A C85U C99U U102A C114G cannot be ordered by “polymerase ribozyme fitness (log ratio)” value: at most -4.2 for the first, at most -4.2 for the second.

Compared with G83U C95G G126U, G80C U145C is lower in “polymerase ribozyme fitness (log ratio)” value: -1.85 for the first, at most -4.2 for the second.

G83U A89C U90G C105U and U82G G84U C85U A107C cannot be ordered by “polymerase ribozyme fitness (log ratio)” value: at most -4.2 for the first, at most -4.2 for the second.

G80A A91C U130G G141U A142G and C79U A89U C96G U102G A107C G143C U144A cannot be ordered by “polymerase ribozyme fitness (log ratio)” value: at most -4.2 for the first, at most -4.2 for the second.

Compared with U82G G128U, G83U C118A C125U U148C is lower in “polymerase ribozyme fitness (log ratio)” value: -3.35 for the first, at most -4.2 for the second.

G80A U111G C132U and U82A C87A cannot be ordered by “polymerase ribozyme fitness (log ratio)” value: at most -4.2 for the first, at most -4.2 for the second.

Going from G80U U148C to G80A A150G, the “polymerase ribozyme fitness (log ratio)” value rises from -3.38 to -1.8.

Going from G83A C85U A115U C116U to G83A C99A C105U U135A U144G, the “polymerase ribozyme fitness (log ratio)” value falls from -2.68 to at most -4.2.

U82G G92A C108G A142C and G80C G86C G100C C103G cannot be ordered by “polymerase ribozyme fitness (log ratio)” value: at most -4.2 for the first, at most -4.2 for the second.

C79A G86A and C79A U101G cannot be ordered by “polymerase ribozyme fitness (log ratio)” value: at most -4.2 for the first, at most -4.2 for the second.

First: G83C C125U U146G
Second: C79U A150C
The “polymerase ribozyme fitness (log ratio)” value of the first is higher: -3.89 for the first, at most -4.2 for the second.

Going from G84A A97U to C79U C93A, the “polymerase ribozyme fitness (log ratio)” value falls from -1.12 to -3.77.

Compared with C79U C93U, G83A C95U G141C U151C is lower in “polymerase ribozyme fitness (log ratio)” value: -3.03 for the first, at most -4.2 for the second.

Going from C79A G143U to G83C C125A G136U, the “polymerase ribozyme fitness (log ratio)” value rises from at most -4.2 to -2.54.

Going from C79A C108U to G83C C85G, the “polymerase ribozyme fitness (log ratio)” value falls from -4.06 to at most -4.2.

G83U C114A U127G G141U G152U and U78G C87G cannot be ordered by “polymerase ribozyme fitness (log ratio)” value: at most -4.2 for the first, at most -4.2 for the second.
